# Data taken from publication PMC9911399, “Two distinct binding modes provide the RNA-binding protein RbFox with extraordinary sequence specificity”.
# Where a chain is given by its changes, count along the chain named. The list shows a part of the results.
# T1: RBFOX1 RRM (Homo sapiens, UniProt Q9NWB1 109-208)
# T1 sequence: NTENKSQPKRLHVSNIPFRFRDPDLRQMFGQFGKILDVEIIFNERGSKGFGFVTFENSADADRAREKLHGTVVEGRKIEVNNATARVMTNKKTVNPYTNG
# B1: UAGUCCG (DNA:RNA)
# RNA: GGGAGACCGGAAUUCAGAUUGUCCUAGUCCGUUAAAUCCCGUCGUAGCCACCA
# DNA 1: CAATCTGAATTCCGGTCTCCC
# DNA 2: TGGTGGCTACGACGGGATT
# B2: UAACGAG (DNA:RNA)
# RNA: B1 RNA with G27A, U28C, C29G, C30A
# DNA 1: CAATCTGAATTCCGGTCTCCC
# DNA 2: TGGTGGCTACGACGGGATT
# B3: UCUCCAU (DNA:RNA)
# RNA: B1 RNA with A26C, G27U, U28C, C30A, G31U
# DNA 1: CAATCTGAATTCCGGTCTCCC
# DNA 2: TGGTGGCTACGACGGGATT
# B4: AACUCAU (DNA:RNA)
# RNA: B1 RNA with U25A, G27C, C30A, G31U
# DNA 1: CAATCTGAATTCCGGTCTCCC
# DNA 2: TGGTGGCTACGACGGGATT
# B5: CCGAAUA (DNA:RNA)
# RNA: B1 RNA with U25C, A26C, U28A, C29A, C30U, G31A
# DNA 1: CAATCTGAATTCCGGTCTCCC
# DNA 2: TGGTGGCTACGACGGGATT
# B6: AGACGCG (DNA:RNA)
# RNA: B1 RNA with U25A, A26G, G27A, U28C, C29G
# DNA 1: CAATCTGAATTCCGGTCTCCC
# DNA 2: TGGTGGCTACGACGGGATT
# B7: AUUGUAA (DNA:RNA)
# RNA: GGGAGACCGGAAUUCAGAUUGUCCAUUGUAAUUAAAUCCCGUCGUAGCCACCA
# DNA 1: CAATCTGAATTCCGGTCTCCC
# DNA 2: TGGTGGCTACGACGGGATT
# B8: GUCUGUA (DNA:RNA)
# RNA: B7 RNA with A25G, U27C, G28U, U29G, A30U
# DNA 1: CAATCTGAATTCCGGTCTCCC
# DNA 2: TGGTGGCTACGACGGGATT
# B9: UCGAUGC (DNA:RNA)
# RNA: B1 RNA with A26C, U28A, C29U, C30G, G31C
# DNA 1: CAATCTGAATTCCGGTCTCCC
# DNA 2: TGGTGGCTACGACGGGATT
# B10: ACAUUAG (DNA:RNA)
# RNA: B7 RNA with U26C, U27A, G28U, A31G
# DNA 1: CAATCTGAATTCCGGTCTCCC
# DNA 2: TGGTGGCTACGACGGGATT
# B11: UGCGACA (DNA:RNA)
# RNA: B7 RNA with A25U, U26G, U27C, U29A, A30C
# DNA 1: CAATCTGAATTCCGGTCTCCC
# DNA 2: TGGTGGCTACGACGGGATT
# B12: GUGGUGC (DNA:RNA)
# RNA: B7 RNA with A25G, U27G, A30G, A31C
# DNA 1: CAATCTGAATTCCGGTCTCCC
# DNA 2: TGGTGGCTACGACGGGATT
# B13: AGUCGUG (DNA:RNA)
# RNA: B7 RNA with U26G, G28C, U29G, A30U, A31G
# DNA 1: CAATCTGAATTCCGGTCTCCC
# DNA 2: TGGTGGCTACGACGGGATT
# B14: AUAAUCC (DNA:RNA)
# RNA: B7 RNA with U27A, G28A, A30C, A31C
# DNA 1: CAATCTGAATTCCGGTCTCCC
# DNA 2: TGGTGGCTACGACGGGATT
# B15: UUGAAGA (DNA:RNA)
# RNA: B7 RNA with A25U, U27G, G28A, U29A, A30G
# DNA 1: CAATCTGAATTCCGGTCTCCC
# DNA 2: TGGTGGCTACGACGGGATT
# B16: GAAGCGC (DNA:RNA)
# RNA: B1 RNA with U25G, G27A, U28G, C30G, G31C
# DNA 1: CAATCTGAATTCCGGTCTCCC
# DNA 2: TGGTGGCTACGACGGGATT
# B17: GUCUAUC (DNA:RNA)
# RNA: B7 RNA with A25G, U27C, G28U, U29A, A30U, A31C
# DNA 1: CAATCTGAATTCCGGTCTCCC
# DNA 2: TGGTGGCTACGACGGGATT
# B18: AUACUAG (DNA:RNA)
# RNA: B7 RNA with U27A, G28C, A31G
# DNA 1: CAATCTGAATTCCGGTCTCCC
# DNA 2: TGGTGGCTACGACGGGATT
# B19: AGGAUGA (DNA:RNA)
# RNA: B7 RNA with U26G, U27G, G28A, A30G
# DNA 1: CAATCTGAATTCCGGTCTCCC
# DNA 2: TGGTGGCTACGACGGGATT
# B20: CAAGCAG (DNA:RNA)
# RNA: B1 RNA with U25C, G27A, U28G, C30A
# DNA 1: CAATCTGAATTCCGGTCTCCC
# DNA 2: TGGTGGCTACGACGGGATT
# Biological target: T1, RBFOX1 RRM
# Assay: EMSA; HiTS-Eq, 1 nM pool, 10 min; buffer printed only for the single-RNA assays: 10 mM Tris pH 7.5, 150 mM NaCl, 3.4 mM EDTA, 0.001% NP-40, 30 C
# Conditions: tags: His6 N-terminal (pET28a); label: 5' 32P
# Outline: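 Purified wild-type or mutant RbFox RRM at increasing concentrations was equilibrated with 1 nM of 5′-radiolabelled RNA carrying 7 randomized nucleotides for 10 min in 50 µL. Unbound RNA was separated by 8% native PAGE and sequenced. Relative association constants came from read-count changes of each RNA species compared with the control reaction, normalised to the cognate motif.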
row,Binder,binding signal
1,B1,0.00983 KA relative to UGCAUGU
2,B2,0.00761 KA relative to UGCAUGU
3,B3,0.00523 KA relative to UGCAUGU
4,B4,0.000205 KA relative to UGCAUGU
5,B5,0.00221 KA relative to UGCAUGU
6,B6,0.00882 KA relative to UGCAUGU
7,B7,0.00779 KA relative to UGCAUGU
8,B8,0.0147 KA relative to UGCAUGU
9,B9,0.0137 KA relative to UGCAUGU
10,B10,0.00404 KA relative to UGCAUGU
11,B11,0.0078 KA relative to UGCAUGU
12,B12,0.0202 KA relative to UGCAUGU
13,B13,0.0125 KA relative to UGCAUGU
14,B14,0.00162 KA relative to UGCAUGU
15,B15,0.0156 KA relative to UGCAUGU
16,B16,0.0138 KA relative to UGCAUGU
17,B17,0.0115 KA relative to UGCAUGU
18,B18,0.00435 KA relative to UGCAUGU
19,B19,0.0193 KA relative to UGCAUGU
20,B20,0.0052 KA relative to UGCAUGU
